This is one part of the list. These are noisy estimates, calculated here from bound and input reads.

Experimental findings from the BET-seq Pho4 binding data (Le et al. 2018) are described below.

In this assay the target is T1, Pho4 (S. cerevisiae) (UniProt P07270).
T1 sequence: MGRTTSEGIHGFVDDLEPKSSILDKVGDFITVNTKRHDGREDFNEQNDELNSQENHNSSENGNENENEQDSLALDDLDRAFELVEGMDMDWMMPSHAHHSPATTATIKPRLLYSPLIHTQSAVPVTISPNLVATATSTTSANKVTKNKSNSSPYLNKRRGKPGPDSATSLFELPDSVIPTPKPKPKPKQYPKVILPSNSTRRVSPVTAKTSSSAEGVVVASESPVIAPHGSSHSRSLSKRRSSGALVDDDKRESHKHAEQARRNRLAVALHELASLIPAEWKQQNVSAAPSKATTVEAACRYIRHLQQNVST
Kind of assay: relative binding free energy (BET-seq); higher = weaker binding. The conditions noted are these: reference: library average.
For CTGTACACGTGGCGGG, the “relative binding free energy” value stood at 0.1 kcal/mol.
Next, CGAGGCACGTGATTAT: 0.17 kcal/mol; CAGTGCACGTGTTGGT: -0.04 kcal/mol.
Take GCAAGCACGTGTGTGT: the “relative binding free energy” value was -0.04 kcal/mol.
With TGCTACACGTGTGGAG, the “relative binding free energy” value stood at 0.06 kcal/mol.
Next, AGGAACACGTGTGTAG: 0 kcal/mol.
ATGACCACGTGGGGTT: the “relative binding free energy” value is -0.22 kcal/mol.
Next, TTTTACACGTGTAAGG: 0.2 kcal/mol; GAATCCACGTGTGGTG: 0.16 kcal/mol.
For TGGGTCACGTGGAGCA, the “relative binding free energy” value was 0.13 kcal/mol.
As to AGTCTCACGTGTTAGA, the “relative binding free energy” value amounted to 0.18 kcal/mol.
Take GGGATCACGTGGCGTT: the “relative binding free energy” value turned out to be 0.17 kcal/mol.
Next, GTTGTCACGTGATCAA: 0.41 kcal/mol; TGGCGCACGTGGCAGT: -0.13 kcal/mol.
Turning to GGTGGCACGTGAGATA, the “relative binding free energy” value amounted to 0.11 kcal/mol.
Next, ATAAACACGTGGAGTG: -0.02 kcal/mol; GGAATCACGTGGCGTA: 0.07 kcal/mol; TATTGCACGTGGGGCC: -0.1 kcal/mol.
Next, ATATTCACGTGGGCTG: 0.09 kcal/mol; AGGGGCACGTGTGCGT: -0.16 kcal/mol.
For ATAATCACGTGGCGTT, the “relative binding free energy” value was -0.06 kcal/mol.
On to TTTTGCACGTGATTAG, for which the “relative binding free energy” value came out at 0.08 kcal/mol.
For TTCGACACGTGTGAGG, the “relative binding free energy” value was 0.18 kcal/mol.
As to TTTATCACGTGCGTTT, the “relative binding free energy” value was 0.13 kcal/mol.
In the case of TGTTCCACGTGGCTTG, the “relative binding free energy” value is -0.03 kcal/mol.
Take AGTTGCACGTGGGGTG: the “relative binding free energy” value is -0.15 kcal/mol.
In the case of GAATTCACGTGCTGGT, the “relative binding free energy” value was 0.29 kcal/mol.
For the sequence TGTTACACGTGAGTTG, the “relative binding free energy” value is 0.24 kcal/mol.
Turning to AGTTACACGTGGGGAG, the “relative binding free energy” value worked out at 0.01 kcal/mol.
As to AACATCACGTGGAGGT, the “relative binding free energy” value was 0.14 kcal/mol.
As to CGAGGCACGTGGTGGA, the “relative binding free energy” value was -0.21 kcal/mol.
For the sequence TATGGCACGTGTAGTG, the “relative binding free energy” value is -0.09 kcal/mol.
Turning to GTTTACACGTGGGAGA, the “relative binding free energy” value amounted to 0.06 kcal/mol.
Regarding TATTGCACGTGGAGCA, the “relative binding free energy” value is 0.11 kcal/mol.
For GGTGACACGTGGGATA, the “relative binding free energy” value was -0.02 kcal/mol.
For the sequence AGGTTCACGTGAAGGG, the “relative binding free energy” value was determined as 0.39 kcal/mol.
Next, TGTCTCACGTGGATTT: 0.1 kcal/mol.
AAGCGCACGTGGTGAG: the “relative binding free energy” value is -0.14 kcal/mol.
For GTTTCCACGTGATAGT, the “relative binding free energy” value came to 0.21 kcal/mol.
Next, TTAATCACGTGAGAGT: 0.24 kcal/mol.
TGTCGCACGTGATAAG: the “relative binding free energy” value came to 0.04 kcal/mol.
Take ATAAACACGTGTGGTA: the “relative binding free energy” value was determined as 0.01 kcal/mol.
For the sequence GGATTCACGTGTAACG, the “relative binding free energy” value turned out to be 0.35 kcal/mol.
With CAGGTCACGTGGTTAG, the “relative binding free energy” value worked out at 0.01 kcal/mol.
For GTAGTCACGTGTAGGC, the “relative binding free energy” value is 0.33 kcal/mol.
Next, CTAGGCACGTGGTAGG: -0.2 kcal/mol; TAATGCACGTGGTGTC: -0.19 kcal/mol.
Turning to GAATTCACGTGGTTTA, the “relative binding free energy” value was 0.28 kcal/mol.
Turning to GAAGGCACGTGGGAAT, the “relative binding free energy” value is -0.23 kcal/mol.
Next, GGTGACACGTGAATTT: 0.22 kcal/mol.
Next, CGAGACACGTGATGGT: 0 kcal/mol; TATTTCACGTGGCGAG: 0.21 kcal/mol.
Consider AGTGTCACGTGCGGGA, for which the “relative binding free energy” value is -0.03 kcal/mol.
For ATGTTCACGTGTAGTA, the “relative binding free energy” value came to 0.11 kcal/mol.
As for CATTTCACGTGTAGCG, the “relative binding free energy” value was found to be 0.42 kcal/mol.
TTGGTCACGTGGAGTA: the “relative binding free energy” value is 0.18 kcal/mol.
Regarding GCGTGCACGTGGTTGT, the “relative binding free energy” value was -0.05 kcal/mol.
With GTGGTCACGTGGAGCG, the “relative binding free energy” value was 0.16 kcal/mol.
For TATTCCACGTGGTAAT, the “relative binding free energy” value came to 0.2 kcal/mol.
As to ATGGGCACGTGTGGCA, the “relative binding free energy” value was -0.04 kcal/mol.
GGTGGCACGTGAGGCC: the “relative binding free energy” value was determined as 0.14 kcal/mol.
Next, GTTTCCACGTGTATAT: 0.12 kcal/mol; AGTGTCACGTGAAGGC: 0.3 kcal/mol.
For CATGTCACGTGAGATT, the “relative binding free energy” value worked out at 0.4 kcal/mol.
Next, TTTTACACGTGCTTAA: 0.03 kcal/mol; AGGAACACGTGTTTTG: -0.01 kcal/mol; CTTAGCACGTGGTGTT: -0.2 kcal/mol.
On to TAGGTCACGTGACGAT, for which the “relative binding free energy” value is 0.35 kcal/mol.
As to ATGTTCACGTGCAGGT, the “relative binding free energy” value turned out to be 0.29 kcal/mol.
With CTTTTCACGTGGCTTT, the “relative binding free energy” value came to 0.06 kcal/mol.
In the case of TTGCTCACGTGAGATA, the “relative binding free energy” value came to 0.43 kcal/mol.
Turning to TATGCCACGTGGCGTG, the “relative binding free energy” value was -0.15 kcal/mol.
Regarding CATGACACGTGTGGTG, the “relative binding free energy” value was -0.06 kcal/mol.
Next, GTGTTCACGTGAATCG: 0.53 kcal/mol; TTGACCACGTGGGAAG: 0.08 kcal/mol; TGATGCACGTGAATGG: 0.25 kcal/mol.
Turning to GGATGCACGTGGTTCA, the “relative binding free energy” value was found to be 0.04 kcal/mol.
Consider TTCTGCACGTGATTGC, for which the “relative binding free energy” value was 0.17 kcal/mol.
For TGCAGCACGTGGTGCT, the “relative binding free energy” value was found to be 0.03 kcal/mol.
With CGGTTCACGTGGTTTG, the “relative binding free energy” value was 0.26 kcal/mol.
Next, TATAACACGTGATGGA: 0.08 kcal/mol; TTATTCACGTGGATCA: 0.26 kcal/mol; GGAAGCACGTGGGGGA: -0.09 kcal/mol.
Take AATGTCACGTGTAGGC: the “relative binding free energy” value turned out to be 0.1 kcal/mol.
As to ATGTTCACGTGTGATA, the “relative binding free energy” value was determined as 0.29 kcal/mol.
Consider TAGTTCACGTGTCAAG, for which the “relative binding free energy” value was 0.26 kcal/mol.
Turning to GTGCTCACGTGTGCGG, the “relative binding free energy” value was 0.34 kcal/mol.
In the case of TAGATCACGTGTGAGG, the “relative binding free energy” value was determined as 0.19 kcal/mol.
Take TTTGACACGTGGTTTG: the “relative binding free energy” value was determined as 0 kcal/mol.
Next, TGTGCCACGTGATAGT: 0.08 kcal/mol; GTTTTCACGTGGAGGG: 0.23 kcal/mol.
For the sequence GGTCTCACGTGGATGG, the “relative binding free energy” value was 0.32 kcal/mol.
Next, TTAAGCACGTGAGGTC: 0.09 kcal/mol.
TTCTTCACGTGTAGAT: the “relative binding free energy” value was 0.4 kcal/mol.
TTATCCACGTGTTATG: the “relative binding free energy” value is -0.09 kcal/mol.
On to TGACGCACGTGGGAGT, for which the “relative binding free energy” value is -0.2 kcal/mol.
Regarding ATTGGCACGTGTAGTT, the “relative binding free energy” value was determined as 0.04 kcal/mol.
With GGTAGCACGTGAGGGA, the “relative binding free energy” value is 0.2 kcal/mol.
Regarding ATGTTCACGTGGGCAA, the “relative binding free energy” value came to 0.13 kcal/mol.
For the sequence TAGGGCACGTGATATG, the “relative binding free energy” value was -0.01 kcal/mol.
Next, GTGAACACGTGGTTGC: 0.18 kcal/mol; GTGAGCACGTGAGTGT: -0.03 kcal/mol.
Next, AATCGCACGTGTTGAG: 0.11 kcal/mol.
Next, ATGTCCACGTGCGGTG: 0.03 kcal/mol.
Consider AGTCTCACGTGGGCAT, for which the “relative binding free energy” value was found to be 0.13 kcal/mol.
Consider TTAAGCACGTGTGCTG, for which the “relative binding free energy” value was -0.1 kcal/mol.
On to TTAGGCACGTGTGAGG, for which the “relative binding free energy” value turned out to be 0.03 kcal/mol.
Turning to AATTGCACGTGAGATG, the “relative binding free energy” value came out at 0.24 kcal/mol.
Consider TGCAGCACGTGTCTGG, for which the “relative binding free energy” value is -0.01 kcal/mol.
Consider ATACTCACGTGGGTTT, for which the “relative binding free energy” value was determined as 0.07 kcal/mol.
For CTTGGCACGTGGATCA, the “relative binding free energy” value came to 0.04 kcal/mol.
Next, GGGGGCACGTGGCGAG: -0.23 kcal/mol.
With TACAGCACGTGTGAGG, the “relative binding free energy” value is 0.02 kcal/mol.
As to TCAGGCACGTGAGGGT, the “relative binding free energy” value amounted to 0.05 kcal/mol.
For the sequence CGCTTCACGTGGGTGT, the “relative binding free energy” value came out at 0.04 kcal/mol.
